Data as given in the supplement of paper PMC8728848.
Some of the results follow.

Experiments:
Assay in all cases: glycan array binding signal (z-score within array); higher = stronger binding
Details in all cases: glycan notation: IUPAC condensed, linker removed
[1] = target: Neu5Ac(a2-6)Gal(b1-4)GlcNAc(b1-3)Gal(b1-3)GlcNAc
Method in brief: (§1)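 Glycan array binding is given as a within-array Z-score, which can be read as non-binding when negative. The arrays, 3228 of them, came from the Consortium for Functional Glycomics database and were retained only where the protein sequence was available. Z-scores were averaged across arrays of the same protein sequence at different concentrations or buffers and across linkers.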

[2] = target: Neu5Ac(a2-6)Gal(b1-4)GlcNAc(b1-3)Gal(b1-4)GlcNAc
Method in brief: as §1

[3] = target: Neu5Ac(a2-6)Gal(b1-4)GlcNAc(b1-3)Gal(b1-4)GlcNAc(b1-2)Man(a1-3)[Neu5Ac(a2-6)Gal(b1-4)GlcNAc(b1-3)Gal(b1-4)GlcNAc(b1-2)Man(a1-6)]GalNAc
Method in brief: as §1

[4] = target: Neu5Ac(a2-6)Gal(b1-4)GlcNAc(b1-3)Gal(b1-4)GlcNAc(b1-3)Gal(b1-4)GlcNAc
Method in brief: as §1

[5] = target: Neu5Ac(a2-6)Gal(b1-4)GlcNAc(b1-3)Gal(b1-4)GlcNAc(b1-3)Gal(b1-4)GlcNAc(b1-2)Man(a1-3)[Neu5Ac(a2-6)Gal(b1-4)GlcNAc(b1-3)Gal(b1-4)GlcNAc(b1-3)Gal(b1-4)GlcNAc(b1-2)Man(a1-6)]GalNAc
Method in brief: as §1

[6] = target: Neu5Ac(a2-6)Gal(b1-4)GlcNAc(b1-3)Gal(b1-4)GlcNAc(b1-3)GalNAc
Method in brief: as §1

[7] = target: Neu5Ac(a2-6)Gal(b1-4)GlcNAc(b1-3)Gal(b1-4)GlcNAc(b1-3)[Neu5Ac(a2-6)Gal(b1-4)GlcNAc(b1-3)Gal(b1-4)GlcNAc(b1-6)]GalNAc
Method in brief: as §1

[8] = target: Neu5Ac(a2-6)Gal(b1-4)GlcNAc(b1-3)Gal(b1-4)GlcNAc(b1-6)[Gal(b1-3)]GalNAc
Method in brief: as §1

[9] = target: Neu5Ac(a2-6)Gal(b1-4)GlcNAc(b1-3)Gal(b1-4)[Fuc(a1-3)]GlcNAc(b1-3)Gal(b1-4)[Fuc(a1-3)]GlcNAc
Method in brief: as §1

[10] = target: Neu5Ac(a2-6)Gal(b1-4)GlcNAc(b1-3)GalNAc
Method in brief: as §1

[11] = target: Neu5Ac(a2-6)Gal(b1-4)GlcNAc(b1-3)[Neu5Ac(a2-6)Gal(b1-4)GlcNAc(b1-6)]GalNAc
Method in brief: as §1

[12] = target: Neu5Ac(a2-6)Gal(b1-4)GlcNAc(b1-6)GalNAc
Method in brief: as §1

[13] = target: Neu5Ac(a2-6)Gal(b1-4)GlcNAc(b1-6)[Gal(b1-3)GlcNAc(b1-3)]Gal(b1-4)Glc
Method in brief: as §1

[14] = target: Neu5Ac(a2-6)Gal(b1-4)GlcNAc(b1-6)[Gal(b1-3)]GalNAc
Method in brief: as §1

[15] = target: Neu5Ac(a2-6)Gal(b1-4)GlcNAc6S
Method in brief: as §1

Neu5Ac(a2-6)GalNAc = target: Neu5Ac(a2-6)GalNAc
Method in brief: as §1

[16] = target: Neu5Ac(a2-6)GalNAc(b1-4)GlcNAc
Method in brief: as §1

[17] = target: Neu5Ac(a2-6)GalNAc(b1-4)GlcNAc6S
Method in brief: as §1

[18] = target: Neu5Ac(a2-6)GlcNAc(b1-4)GlcNAc
Method in brief: as §1

[19] = target: Neu5Ac(a2-6)GlcNAc(b1-4)GlcNAc(b1-4)GlcNAc
Method in brief: as §1

Neu5Ac(a2-8)Neu5Ac = target: Neu5Ac(a2-8)Neu5Ac
Method in brief: as §1

[20] = target: Neu5Ac(a2-8)Neu5Ac(a2-3)Gal(b1-3)GalNAc(b1-4)[Neu5Ac(a2-3)]Gal(b1-4)Glc
Method in brief: as §1

[21] = target: Neu5Ac(a2-8)Neu5Ac(a2-3)Gal(b1-3)GalNAc(b1-4)[Neu5Ac(a2-8)Neu5Ac(a2-3)]Gal(b1-4)Glc
Method in brief: as §1

[22] = target: Neu5Ac(a2-8)Neu5Ac(a2-3)Gal(b1-4)Glc
Method in brief: as §1

[23] = target: Neu5Ac(a2-8)Neu5Ac(a2-3)Gal(b1-4)GlcNAc
Method in brief: as §1

[24] = target: Neu5Ac(a2-8)Neu5Ac(a2-3)[Gal(b1-3)GalNAc(b1-4)]Gal(b1-4)Glc
Method in brief: as §1

[25] = target: Neu5Ac(a2-8)Neu5Ac(a2-3)[GalNAc(b1-4)]Gal(b1-4)Glc
Method in brief: as §1

[26] = target: Neu5Ac(a2-8)Neu5Ac(a2-8)Neu5Ac
Method in brief: as §1

[27] = target: Neu5Ac(a2-8)Neu5Ac(a2-8)Neu5Ac(a2-3)Gal(b1-4)Glc
Method in brief: as §1

[28] = target: Neu5Ac(a2-8)Neu5Ac(a2-8)Neu5Ac(a2-3)[Gal(b1-3)GalNAc(b1-4)]Gal(b1-4)Glc
Method in brief: as §1

[29] = target: Neu5Ac(a2-8)Neu5Ac(a2-8)Neu5Ac(a2-3)[GalNAc(b1-4)]Gal(b1-4)Glc
Method in brief: as §1

[30] = target: Neu5Ac(a2-8)Neu5Ac(a2-8)Neu5Ac(a2-8)Neu5Ac(a2-3)[GalNAc(b1-4)]Gal(b1-4)Glc
Method in brief: as §1

[31] = target: Neu5Ac(a2-8)Neu5Gc(a2-3)Gal(b1-4)GlcNAc
Method in brief: as §1

[32] = target: Neu5Ac(b2-6)Gal(b1-4)GlcNAc
Method in brief: as §1

Neu5Ac(b2-6)GalNAc = target: Neu5Ac(b2-6)GalNAc
Method in brief: as §1

[33] = target: Neu5Ac9Ac(a2-3)Gal(b1-3)GlcNAc
Method in brief: as §1

[34] = target: Neu5Ac9Ac(a2-3)Gal(b1-4)GlcNAc
Method in brief: as §1

[35] = target: Neu5Ac9Ac(a2-6)Gal(b1-4)GlcNAc
Method in brief: as §1

[36] = target: Neu5Gc(a2-3)Gal(b1-3)GlcNAc
Method in brief: as §1

[37] = target: Neu5Gc(a2-3)Gal(b1-3)[Fuc(a1-4)]GlcNAc
Method in brief: as §1

Neu5Gc(a2-3)Gal(b1-4)Glc = target: Neu5Gc(a2-3)Gal(b1-4)Glc
Method in brief: as §1

[38] = target: Neu5Gc(a2-3)Gal(b1-4)GlcNAc
Method in brief: as §1

[39] = target: Neu5Gc(a2-3)Gal(b1-4)GlcNAc(b1-3)Gal(b1-4)GlcNAc(b1-2)Man(a1-3)[Neu5Gc(a2-3)Gal(b1-4)GlcNAc(b1-3)Gal(b1-4)GlcNAc(b1-2)Man(a1-6)]Man(b1-4)GlcNAc(b1-4)GlcNAc
Method in brief: as §1

[40] = target: Neu5Gc(a2-3)Gal(b1-4)[Fuc(a1-3)]GlcNAc
Method in brief: as §1

[41] = target: Neu5Gc(a2-6)Gal(b1-4)GlcNAc
Method in brief: as §1

Neu5Gc(a2-6)GalNAc = target: Neu5Gc(a2-6)GalNAc
Method in brief: as §1

[42] = target: Neu5Gc(a2-8)Neu5Ac(a2-3)Gal(b1-4)GlcNAc
Method in brief: as §1

[43] = target: Neu5Gc(a2-8)Neu5Gc(a2-3)Gal(b1-4)GlcNAc
Method in brief: as §1

[44] = target: Neu5Gc(a2-8)Neu5Gc(a2-3)Gal(b1-4)GlcNAc(b1-3)Gal(b1-4)GlcNAc
Method in brief: as §1

[45] = target: Neu5Gc(a2-8)Neu5Gc(a2-6)Gal(b1-4)GlcNAc
Method in brief: as §1

[46] = target: Neu5Gc(b2-6)Gal(b1-4)GlcNAc
Method in brief: as §1

B1: rCNL (Clitocybe nebularis), B2ZRS9 (protein)
chain: SITPGTYNITNVAYTNRLIDLTGSNPAENTLIIGHHLNKTPSGYGNQQWTLVQLPHTTIYTMQAVNPQSYVRVRDDNLVDGAALVGSQQPTPVSIESAGNSGQFRIKIPNLGLALTLPSDANSTPIVLGEVDETSTNQLWAFESVSAV
For B1, the “glycan array binding signal (z-score)” value [1] was -0.257, the “glycan array binding signal (z-score)” value [2] was -0.043 and the “glycan array binding signal (z-score)” value [3] was -0.211. The “glycan array binding signal (z-score)” value [4] was -0.014, the “glycan array binding signal (z-score)” value [5] was -0.13 and the “glycan array binding signal (z-score)” value [6] was -0.22. For the same binder, the “glycan array binding signal (z-score)” value [7] was 0.003, the “glycan array binding signal (z-score)” value [8] was -0.185 and the “glycan array binding signal (z-score)” value [9] was -0.274. For the same binder, the “glycan array binding signal (z-score)” value [10] was -0.295, the “glycan array binding signal (z-score)” value [11] was -0.221 and the “glycan array binding signal (z-score)” value [12] was -0.214. The “glycan array binding signal (z-score)” value [13] was -0.221, the “glycan array binding signal (z-score)” value [14] was -0.224 and the “glycan array binding signal (z-score)” value [15] was -0.244. For the same binder, the “glycan array binding signal (z-score)” value (Neu5Ac(a2-6)GalNAc) was -0.31, the “glycan array binding signal (z-score)” value [16] was -0.29 and the “glycan array binding signal (z-score)” value [17] was -0.189. The “glycan array binding signal (z-score)” value [18] was -0.317, the “glycan array binding signal (z-score)” value [19] was -0.307 and the “glycan array binding signal (z-score)” value (Neu5Ac(a2-8)Neu5Ac) was -0.306. The “glycan array binding signal (z-score)” value [20] was -0.22, the “glycan array binding signal (z-score)” value [21] was -0.213 and the “glycan array binding signal (z-score)” value [22] was -0.315. For the same binder, the “glycan array binding signal (z-score)” value [23] was -0.225, the “glycan array binding signal (z-score)” value [24] was -0.224 and the “glycan array binding signal (z-score)” value [25] was -0.134. For the same binder, the “glycan array binding signal (z-score)” value [26] was -0.31, the “glycan array binding signal (z-score)” value [27] was -0.3 and the “glycan array binding signal (z-score)” value [28] was -0.224. For the same binder, the “glycan array binding signal (z-score)” value [29] was -0.044, the “glycan array binding signal (z-score)” value [30] was -0.044 and the “glycan array binding signal (z-score)” value [31] was -0.227. For the same binder, the “glycan array binding signal (z-score)” value [32] was -0.31, the “glycan array binding signal (z-score)” value (Neu5Ac(b2-6)GalNAc) was -0.309 and the “glycan array binding signal (z-score)” value [33] was -0.299. The “glycan array binding signal (z-score)” value [34] was -0.278, the “glycan array binding signal (z-score)” value [35] was 0.312 and the “glycan array binding signal (z-score)” value [36] was -0.302. The “glycan array binding signal (z-score)” value [37] was -0.299, the “glycan array binding signal (z-score)” value (Neu5Gc(a2-3)Gal(b1-4)Glc) was -0.302 and the “glycan array binding signal (z-score)” value [38] was -0.313. The “glycan array binding signal (z-score)” value [39] was -0.209, the “glycan array binding signal (z-score)” value [40] was -0.289 and the “glycan array binding signal (z-score)” value [41] was -0.285. For the same binder, the “glycan array binding signal (z-score)” value (Neu5Gc(a2-6)GalNAc) was -0.296, the “glycan array binding signal (z-score)” value [42] was -0.227 and the “glycan array binding signal (z-score)” value [43] was -0.231. The “glycan array binding signal (z-score)” value [44] was -0.222, the “glycan array binding signal (z-score)” value [45] was -0.225 and the “glycan array binding signal (z-score)” value [46] was -0.297.
